Results published in PubChem BioAssay AID686979 (National Center for Advancing Translational Sciences (NCATS), 2013).
Values joined by “and” are separate entries in the source; they are usually repeats but may differ in a detail not shown here. Equal entries are not always repeated. Out of some 420,000 compounds screened, about 50,000 (12%) were called active. Inconclusive results, whose numbers are uncertain, are shown with a selection of clear calls. Calls come from the whole dose curve; as a rule, active = well fitted inhibition curve with a large enough effect; inconclusive = small, poorly fitted or top-dose-only effect; inactive = flat fitted curve, though single readings scatter. No potency is given beside an inconclusive call; the fits are too rough.

Test: qHTS for Inhibitors of human tyrosyl-DNA phosphodiesterase 1 (TDP1): qHTS in cells in presence of CPT; note: nearly all actives have a fitted effect of over 55% in size
Conditions: chicken DT40 Tdp1-/-;hTDP1 cells + 20 nM CPT, ATP luminescence, 48 h; activity change, negative = growth inhibition: at 46.2 µM (top of the series) unless noted
In short: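 Chicken DT40 Tdp1-/- cells complemented with human TDP1, 400 cells/well, exposed to compounds plus 20 nM camptothecin for at least 48 h at 37 C; viability read as ATP content by CellTiter-Glo luminescence.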
% is set by controls: 0 for no effect and ±100 for the full control effect; potency is the fitted concentration of half-maximal effect; tags give direction and shape of the fitted curve.

With `CCc1noc(C)c1C(=O)N1CCN(S(=O)(=O)c2ccc(Br)cc2)CC1` as the compound, how does the “activity change, negative = growth inhibition” value read?
The value was inactive: 3.59%.

Which Potency does the source give for `Cc1cc(C(=O)COC(=O)c2cccc(O)c2)c(C)n1C1CC1` here?
Its Potency is inconclusive [inhibitor, full curve, poor fit].

Which Potency does the source give for `C[C@@]12C(=O)N(Cc3ccco3)CC(=O)N1[C@H]1c3cc(Cl)ccc3OC[C@@H]1[C@@H]2c1ccccc1` here?
The Potency was inconclusive [inhibitor, single point].

Which Potency does the source give for `CC(=O)Nc1nc(C)c(-c2csc(Nc3ccccn3)n2)s1` here?
The Potency was active: 1.16 µM and active: 10.3 µM.

Which Potency does the source give for `Cc1ccc(C(=O)Nc2nnc(NC(=S)Nc3ccccc3)s2)cc1` here?
The Potency was inconclusive [inhibitor, single point].

For `CCCCN1C(=O)C(CC(=O)NC(c2ccccc2)c2ccccc2)CC(C(=O)N2CCCCCC2)=C1C` (centres undefined), which Potency is on record?
Its Potency is inconclusive [inhibitor, single point].

Which “activity change, negative = growth inhibition” value does the source give for `CCO/C(C)=C1\N=C(c2ccc(Cl)cc2)OC1=O` here?
The value was inactive: -9.19%.

For `C[C@H](CO)N1C[C@H](C)[C@@H](CN(C)Cc2ccc(Oc3ccccc3)cc2)Oc2cc(Br)ccc2S1(=O)=O`, which Potency is on record?
Its Potency is active: 23.1 µM.

With `Cc1cccc(N(CC(=O)Nc2cccc(Cl)c2C)S(C)(=O)=O)c1C` as the compound, how does the Potency read?
The Potency was inconclusive [inhibitor, single point].

Which “activity change, negative = growth inhibition” value does the source give for `O=[N+]([O-])c1cc(S(=O)(=O)N2CCCC2)ccc1NCCCN1CCOCC1` here?
The value was inactive: 5.83%.

For `Cc1ccc(S(=O)(=O)NCC(c2ccco2)N2CCN(c3ccccc3F)CC2)cc1` (centres undefined), which Potency is on record?
Its Potency is inconclusive [inhibitor, single point].

For `COC(=O)N1CCC2(CCN(Cc3cc(C(F)(F)F)cc(C(F)(F)F)c3)CC2)CC1`, which Potency is on record?
Its Potency is inconclusive [inhibitor, single point].

With `CN=C1S/C(=C\c2ccc(N3CCCC3)c(F)c2)C(=O)N1C` as the compound, how does the Potency read?
Its Potency is inconclusive [inhibitor, single point].

For `COC(C(=O)Nc1ccnn1C1CCN(Cc2nccs2)CC1)c1ccccc1` (centres undefined), which “activity change, negative = growth inhibition” value is on record?
Its value is inactive: -5.66%.

For `CCOC(=O)C1=C(O)C(=O)N(c2ccc(S(N)(=O)=O)cc2)C1c1ccc(Br)cc1` (centres undefined), which “activity change, negative = growth inhibition” value is on record?
Its value is inactive: 7.8%.

With `COC(=O)c1c(NC(=O)c2nc(SCc3ccc(C)cc3)ncc2Cl)sc2c1CCCC2` as the compound, how does the “activity change, negative = growth inhibition” value read?
Its value is inactive: -8.39%.

With `CSc1cccc(NC(=O)c2cc(S(=O)(=O)N3CCc4ccccc43)cn2C)c1` as the compound, how does the Potency read?
The Potency was active: 14.6 µM.

For `C=C[C@]1(C)C[C@@H](OC(=O)CSC(C)(C)CNC(=O)[C@H](N)C(C)C)[C@]2(C)[C@H](C)CC[C@]3(CCC(=O)[C@H]32)[C@@H](C)[C@@H]1O`, which Potency is on record?
The Potency was active: 0.237 µM.

For `COC(=O)[C@@]12C[C@@H](CC(=O)N3CCCC3)C(=O)N(Cc3ccco3)C1=CCC(C)(C)C2`, which Potency is on record?
Its Potency is inconclusive [inhibitor, partial curve].

Which “activity change, negative = growth inhibition” value does the source give for `Cc1c(C(=O)Nc2ccccc2F)sc2ncn(CC(=O)N3CCCCC3)c(=O)c12` here?
Its value is inactive: -24.8%.

With `CC(C)CCNC(=O)CCSCCC(=O)NCCC(C)C` as the compound, how does the “activity change, negative = growth inhibition” value read?
Its value is inactive: 9.79%.

For `CCCOc1ccc(N2C(=O)CC(NCCNc3ccc([N+](=O)[O-])cn3)C2=O)cc1` (centres undefined), which Potency is on record?
The Potency was inconclusive [inhibitor, partial curve].

With `Fc1ccc(COc2ccccc2CNCc2ccncc2)cc1` as the compound, how does the Potency read?
Its Potency is inconclusive [inhibitor, single point].

For `CCCCNC(=O)/C(C#N)=C/c1ccc(C(=O)OC)cc1`, which Potency is on record?
The Potency was inconclusive [inhibitor, full curve, poor fit].

Which Potency does the source give for `Cc1nn(C)c(Cl)c1CN1CCCC(CO)(Cc2cccc(Cl)c2)C1` (centres undefined) here?
Its Potency is active: 14.6 µM.

For `CC(=O)N/N=C\c1ccccc1OC/C=C/c1ccccc1`, which Potency is on record?
Its Potency is active: 16.4 µM.

With `COc1ccccc1C(=O)COC(=O)CNS(=O)(=O)c1ccc(NC(C)=O)cc1` as the compound, how does the “activity change, negative = growth inhibition” value read?
The value was inactive: -12.6%.

With `O=C(C[n+]1cc(Br)cc2ccccc21)c1ccc(O)c(O)c1` as the compound, how does the Potency read?
Its Potency is inconclusive [inhibitor, single point].

Which Potency does the source give for `O=C(C1CCN(S(=O)(=O)c2ccccc2)CC1)N(CCc1ccccc1)Cc1ccco1` here?
The Potency was inconclusive [inhibitor, single point].

With `Cc1cc(C)cc(NC(=O)C(=O)NCC2CCCN2S(=O)(=O)c2cccs2)c1` (centres undefined) as the compound, how does the Potency read?
The Potency was active: 7.31 µM.

Which Potency does the source give for `CC(C)n1c(COc2ccccc2)nc2ccccc21` here?
Its Potency is inconclusive [inhibitor, single point].

For `CC(C)(C)NC(=O)Cn1c(=O)oc2cc(S(=O)(=O)N3CCc4ccccc43)ccc21`, which Potency is on record?
Its Potency is inconclusive [inhibitor, single point].

For `O=c1[nH]c(=O)c2[nH]c(=S)n(-c3ccccc3)c2[nH]1`, which “activity change, negative = growth inhibition” value is on record?
The value was inactive: 12.8%.

Which “activity change, negative = growth inhibition” value does the source give for `O=C(CC[C@H]1O[C@@H](n2ccc(=O)[nH]c2=O)[C@H](O)[C@@H]1O)N[C@H](Cc1ccccc1)C(=O)NCC1CCCCC1` here?
Its value is inactive: -9.54%.

For `Cc1ccc(S(=O)(=O)N2C[C@@H]3[C@H]4CC[C@H](C4)[C@@H]3[C@@H](C)[C@@H]2c2ccn([Si](C(C)C)(C(C)C)C(C)C)c2)cc1`, which Potency is on record?
The Potency was inconclusive [inhibitor, single point].

Which Potency does the source give for `Cc1nn(C)cc1CN(C)C(=O)c1cc(COc2ccc(F)cc2F)on1` here?
Its Potency is inconclusive [inhibitor, single point].

For `N#Cc1nc(-c2cccs2)oc1NCc1ccccc1Cl`, which Potency is on record?
The Potency was inconclusive [inhibitor, single point].

With `Cc1cccc(C(=O)Nc2ccccc2N2CCN(c3ccc(F)cc3)CC2)c1` as the compound, how does the Potency read?
Its Potency is inconclusive [inhibitor, single point].

For `O=C(NC1CC1)c1ccc(Cn2c(SCc3ccccc3F)nc3cccnc32)cc1`, which Potency is on record?
The Potency was active: 20.6 µM.

With `COc1cccc(Nc2ncc(C#N)c(N)n2)c1` as the compound, how does the “activity change, negative = growth inhibition” value read?
Its value is inactive: -9.41%.

Which “activity change, negative = growth inhibition” value does the source give for `COc1ccc(CCNC(=O)CCCn2c(=S)[nH]c3ccsc3c2=O)cc1OC` here?
The value was inactive: -0.67%.

For `COc1ccc(OC)c(C2C(C(=O)c3cc4ccccc4o3)=C(O)C(=O)N2c2cc(C)on2)c1` (centres undefined), which Potency is on record?
The Potency was inconclusive [inhibitor, single point].

Which “activity change, negative = growth inhibition” value does the source give for `O=C(O)Cn1c(COc2ccc(Cl)cc2)nc2ccccc21` here?
The value was inactive: -4.22%.

For `COc1ccc([C@@H]2CC(=O)[C@@H]3CN(S(=O)(=O)c4ccc(Cl)cc4)[C@H](c4ccc(C)cc4)C[C@@H]3N2S(=O)(=O)c2ccccc2)cc1`, which Potency is on record?
Its Potency is inconclusive [inhibitor, single point].
